Reference: PMC4336329 (PLoS ONE, 2015)
About 2,200 (0.71%) of roughly 310,000 compounds showed an effect of 50% or more. Effects have a minus sign here. Some of the results follow.

These compounds were tested against human ether-à-go-go-related gene (hERG) potassium channel (human, UniProt Q12809) (assay: primary screen, population patch clamp on CHO cells stably expressing hERG).
human ether-à-go-go-related gene (hERG) potassium channel, sequence (Q12809 whole entry, looked up): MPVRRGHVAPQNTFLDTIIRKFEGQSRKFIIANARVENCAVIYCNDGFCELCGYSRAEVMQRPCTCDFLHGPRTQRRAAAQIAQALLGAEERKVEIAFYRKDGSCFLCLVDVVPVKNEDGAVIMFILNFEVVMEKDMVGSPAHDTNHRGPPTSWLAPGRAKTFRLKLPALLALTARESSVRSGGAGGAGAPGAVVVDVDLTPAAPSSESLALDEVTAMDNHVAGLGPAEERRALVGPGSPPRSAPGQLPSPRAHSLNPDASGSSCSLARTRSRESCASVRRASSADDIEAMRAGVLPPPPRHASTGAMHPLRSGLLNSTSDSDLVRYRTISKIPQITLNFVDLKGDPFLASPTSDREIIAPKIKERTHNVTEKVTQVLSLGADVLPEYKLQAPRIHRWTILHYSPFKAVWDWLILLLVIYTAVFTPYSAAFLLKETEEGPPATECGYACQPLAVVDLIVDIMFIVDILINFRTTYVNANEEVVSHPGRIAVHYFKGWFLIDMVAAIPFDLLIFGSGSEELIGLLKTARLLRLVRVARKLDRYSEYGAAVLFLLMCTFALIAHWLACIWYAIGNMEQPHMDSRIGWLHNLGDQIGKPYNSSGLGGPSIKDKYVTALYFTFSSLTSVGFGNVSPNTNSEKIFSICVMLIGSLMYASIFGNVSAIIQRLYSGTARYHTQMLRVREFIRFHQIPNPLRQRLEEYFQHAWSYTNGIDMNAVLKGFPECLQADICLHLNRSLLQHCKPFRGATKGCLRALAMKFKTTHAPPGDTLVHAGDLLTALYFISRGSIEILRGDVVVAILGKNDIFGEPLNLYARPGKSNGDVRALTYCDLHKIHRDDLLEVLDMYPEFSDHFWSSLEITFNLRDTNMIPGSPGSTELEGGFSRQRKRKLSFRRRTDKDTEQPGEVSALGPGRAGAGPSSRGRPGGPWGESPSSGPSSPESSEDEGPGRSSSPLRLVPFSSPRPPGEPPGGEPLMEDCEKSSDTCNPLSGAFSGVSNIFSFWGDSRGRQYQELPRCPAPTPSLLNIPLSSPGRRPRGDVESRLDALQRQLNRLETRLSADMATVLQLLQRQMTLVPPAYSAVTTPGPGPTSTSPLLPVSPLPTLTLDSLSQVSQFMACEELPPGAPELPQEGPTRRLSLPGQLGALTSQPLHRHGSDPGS

| SMILES | hERG current change (%, negative = inhibition) at 1uM [%] |
| --- | --- |
| CCCCCCc1nnc(N)s1 | 3.49 |
| CC(=O)c1ccc(Sc2ccc(C(C)=O)cc2)cc1 | 5.55 |
| COc1ccccc1OCC(=O)Nc1cc(C(F)(F)F)ccc1-n1cncn1 | -10.6 |
| CCc1ccc(CNC(=O)C(=O)NCCc2ccc(OC)c(OC)c2)cc1 | 8.47 |
| Cc1ccc(S(=O)(=O)N2CCCCC2)cc1C(=O)N(C)CCOc1ccccc1 | -13.6 |
| Cc1ccc(S(=O)(=O)NCC(C)n2nc(C)nc2C)cc1 (stereo not shown) | 8.64 |
| O=c1[nH]cnc2cc(Cl)ccc12 | 9.48 |
| COc1ccc(CCNC(=O)CSc2nnc(-c3ccc(F)cc3)o2)cc1OC | 9.32 |
| COC(=O)c1c(C(=O)OC)c(-c2ccc(OC)cc2)n2c1CS(=O)C2 (stereo not shown) | 13.9 |
| Cc1c(C(=O)NCCc2ccc3c(c2)OCCO3)oc2ccccc12 | 0.986 |
| O=C1CC(N2CCC(c3nc4ccccc4[nH]3)CC2)C(=O)N1Cc1ccccc1 (stereo not shown) | -20.6 |
| O=C(O)C(CC1CCCCC1)N1CCS(=O)(=O)CC1 (stereo not shown) | 13.6 |
| Nc1nc(N)nc(-c2cc(F)ccc2O)n1 | 12.1 |
| COCC(C)OC(=O)C(C#N)c1nc2ccccc2nc1N1CCN(Cc2ccccc2)CC1 (stereo not shown) | -3.9 |
| COc1ccccc1C(=O)N1CCN(Cc2ccc3c(c2)OCO3)CC1 | 9.27 |
| Nc1ccc2oc(-c3cccc(Br)c3)nc2c1 | 2.68 |
| O=C(NCc1ccc2c(c1)OCO2)Nc1ccc(F)cc1 | 1.65 |
| Cc1ccc(NC(=O)CCC(=O)c2ccc(F)cc2)cc1Cl | -2.75 |
| Cc1ccc(C)c(CN2CCC(CNC(=O)Nc3ccc(Cl)cc3)CC2)c1 | -26.8 |
| Cc1ccc(C(=O)N/N=C\c2cccn2C)cn1 | 22.4 |
| Cc1ccc(CNC(=O)c2ccc3c(c2)NC(=O)C(N2CCOCC2)S3)cc1 (stereo not shown) | 9.54 |
| CCOC(=O)c1csc(NC(=O)c2ccc(S(=O)(=O)N(C)C)cc2)n1 | 15.4 |

| SMILES | hERG current change (%, negative = inhibition) at 1uM [%] |
| --- | --- |
| CCCC(=O)Nc1ccc(-c2csc(-c3cccnc3)n2)cc1 | 4.25 |
| COc1ccc(OC)c(NC(=O)COC(=O)Cc2ccc(-c3ccccc3)cc2)c1 | 12.8 |
| Cc1cccc(NC(=O)/C(C#N)=C/c2ccc[nH]2)c1C | 24.2 |
| Cc1ccc(Cn2cc(C(=O)c3ccc(F)cc3)c(=O)c3cc4c(cc32)OCCO4)cc1 | -3.62 |
| O=C(Nc1ccccc1)c1cc(Cl)nc2ccccc12 | 10.9 |
| CC(=C\C(=O)O)/C(=C\c1cccc2ccccc12)C(=O)O | 6.73 |
| COc1cc(NC(=O)c2ccc(C)cc2C)ccc1NC(=O)c1cc2ccccc2o1 | 13.1 |
| O=C(NCc1ccccc1)c1c[nH]c2cc3c(cc2c1=O)OCCO3 | 8 |
| O=C(Cc1ccccc1)N/N=C/c1cc(Br)c(Br)o1 | 20.6 |
| Cc1ccc(S(=O)(=O)Nc2ccccc2C(=O)N2CCCCC2C)c(C)c1NS(C)(=O)=O (stereo not shown) | 11.1 |
| O=C(CN(Cc1ccco1)C(=O)c1ccc(Cl)cc1)Nc1ccc(Cl)c(Cl)c1 | 6.11 |
| COc1cccc(OCCn2cc(C(C)=O)c3ccccc32)c1 | 10.5 |
| CCn1c(SCC(=O)c2c[nH]c3ccccc23)nc2cc(S(=O)(=O)N3CCOCC3)ccc21 | 11.4 |
| Cc1cccc2sc(NC(=O)C3CCN(C(=O)c4ccco4)CC3)nc12 | -9.27 |
| COc1ccccc1C(=O)c1nc2ccccc2n1C | 11 |
| COC(=O)Cc1ccc(NC(=S)NCc2ccco2)cc1 | 22.8 |
| CCc1cccc(NC(=O)CCNC(=O)Cn2ccc3ccccc3c2=O)c1 | 13.4 |
| CCOc1cc(CN2CCN(C(=O)Cc3ccccc3)CC2)ccc1OC.O=C(O)C(=O)O | 10.3 |
| Cc1ccc(-n2nc(C)cc2Nc2ncc(Cl)cc2Cl)cc1 | 0.419 |
| O=C(O)c1ccc(Cl)c(NC(=S)NC(=O)c2ccccc2[N+](=O)[O-])c1 | 7.29 |
| COc1cc(C2C(C#N)=C(N)OC3=C2C(=O)CC(C)(C)C3)ccc1OC(=O)N1CCOCC1 (stereo not shown) | 8.93 |
| COc1ccc(C(C)=O)cc1CSc1nnc(C)n1-c1ccccc1 | 10.5 |

| SMILES | hERG current change (%, negative = inhibition) at 1uM [%] |
| --- | --- |
| CCSc1cc(C2C(C(=O)OC)=C(C)NC3=C2C(=O)CCC3)c(C)o1 (stereo not shown) | 0.16 |
| O=c1c2ccccc2c(-c2cccc(C(F)(F)F)c2)nn1-c1ccccc1 | 9.85 |
| Nc1ncnc2c1ncn2C1OC(CO)C(O)C1N (stereo not shown) | 3.17 |
| COC(=O)c1cccc(NC(=S)Nc2cccc(Cl)c2Cl)c1 | 12.2 |
| CC(NC(=O)CN(C)S(=O)(=O)c1ccc(F)cc1)C1CC2CCC1C2 (stereo not shown) | 12.4 |
| COc1cccc(NC(=O)c2ccc(NCCCN3CCC(C)CC3)c([N+](=O)[O-])c2)c1 | -18 |
| O=C(CCl)N1CCN(S(=O)(=O)c2ccc3c(c2)OCCCO3)CC1 | 13.1 |
| Nc1ccn(Cc2cccc(Cl)c2)n1 | 9.5 |
| O=C(/C=C/c1ccc(OCCCF)cc1)N1CCOCC1 | 6.4 |
| Brc1cccc(-c2nnc3n2CCC3)c1 | 13.3 |
| COc1ccc(-n2c(CN3CCN(c4ccc(F)cc4)CC3)nc3ccc([N+](=O)[O-])cc3c2=O)c(OC)c1 | -16.7 |
| C=CCc1ccc(OCC(O)COCC)c(OC)c1 (stereo not shown) | 6.22 |
| O=C(/C=C/c1ccc(S(=O)(=O)N2CCOCC2)cc1)N1CCN(c2ccc(F)cc2)CC1 | -5.03 |
| COc1ccc(CNCCc2cccc(F)c2)c2ccccc12.O=C(O)C(=O)O | -0.935 |
| CC(Sc1nnc(-c2cccs2)n1-c1ccccc1)C(=O)NCc1ccc2c(c1)OCO2 (stereo not shown) | -8.53 |
| COc1ccc(NS(=O)(=O)c2cccc(C(=O)NCC(c3ccco3)N3CCCC3)c2)cc1 (stereo not shown) | -10.2 |
| CC(C)N1CCC(N2CCN(Cc3ccc4nonc4c3)CC2CCO)CC1 (stereo not shown) | -6.33 |
| O=S(=O)(Cc1cc(-c2ccccc2Cl)no1)c1ccccc1 | 6.09 |
| CCc1ccc(OCC2c3cc(OC)c(OC)cc3CCN2C(C)=O)cc1 (stereo not shown) | 3.59 |
| CCS(=O)(=O)c1ccc(C(=O)Nc2ccccc2)c(Cl)c1Cl | 16.2 |
| O=c1c2ccccc2nc(-c2ccccc2)n1CCN1CCOCC1 | 4.89 |
| COc1cccc(NC(=O)Cn2cc(C(=O)C3CC3)c3ccccc32)c1 | 0.882 |

| SMILES | hERG current change (%, negative = inhibition) at 1uM [%] |
| --- | --- |
| CCOc1cc(C(N)=O)cc(OCC)c1OCC | 10.4 |
| CCOC(=O)c1c(C)[nH]c(C2=NNC(=Nc3ccccc3OC)SC2)c1C | 12.7 |
| O=C(CCN1C(=O)c2ccccc2C1=O)NCc1cccc(Cl)c1 | 8.15 |
| CNC(=S)N(CCc1c(C)[nH]c2ccc(C)cc12)Cc1ccco1 | -2.69 |
| Cc1ccc(NS(=O)(=O)c2cccc(C(=O)NCC(c3ccc(F)cc3)N3CCOCC3)c2)cc1 (stereo not shown) | -2.41 |
| Cc1c(Br)c([N+](=O)[O-])nn1CC(=O)Nc1sc2c(c1C(=O)OC(C)C)CCCC2 | 7.2 |
| Cc1cccc(N2C(=O)c3ccc(Br)cc3C2=O)n1 | 13.7 |
| COCC(C)n1c(SCC(=O)Nc2nccs2)nc2ccccc2c1=O (stereo not shown) | 9.63 |
| Cc1cc(NC(=O)CSc2nnc(C3COc4ccccc4O3)n2N)no1 (stereo not shown) | 9.32 |
| CC(NC(=O)Cn1nc(C(=O)O)c2ccccc2c1=O)C12CC3CC(CC(C3)C1)C2 (stereo not shown) | 9.45 |
| CC1CN(S(=O)(=O)c2cccc(C(=O)NCc3ccco3)c2)CC(C)O1 (stereo not shown) | 6.67 |
| Cc1nn(-c2ccccc2)c(N)c1C(O)(CC(=O)C(F)(F)F)C(F)(F)F (stereo not shown) | 13.4 |
| CCCCOP(=O)(c1ccc(N(C)C)cc1)C(O)c1c(Cl)cccc1Cl (stereo not shown) | 4.88 |
| Cc1cccc(CN2C(=O)/C(=C\c3ccc(C(=O)NCCCN4CCN(C)CC4)cc3)Oc3ccccc32)c1 | 16.3 |
| O=C(CCc1ccccc1)Nc1cc2c3c(c1)CCC(=O)N3CCC2 | -1.85 |
| CNC(=S)N/N=C/c1ccccc1Cl | 4.07 |
| Cc1nc2ccc(NC(=O)CCS(=O)(=O)c3ccccc3)cc2s1 | 12.2 |
| COC(=O)Cc1ccc(NC(=S)N2CCN(c3cccc(O)c3)CC2)cc1 | 20.6 |
| CC(CCc1ccccc1)NC(=O)COC(=O)CC1CC2CCC1C2 (stereo not shown) | 12.8 |
| COc1ccccc1Nc1nc(-c2cccc([N+](=O)[O-])c2)nc2ccccc12 | 1.19 |
| COc1cccc(/C=N/NC(=O)Cn2cnc3c2c(=O)n(C)c(=O)n3C)c1OC | 11.6 |
| O=C(c1cnn2c(C(F)F)cc(C3CC3)nc12)N1CCCC1 | -1.23 |
